{
  "source": "the DeepSol protein solubility set",
  "assay": "soluble on expression in E. coli; label from the status in PepcDB or PDB records",
  "data": [
    {"sequence": "GAMGSNIESTLNSVASVKDLANEASKYEIILQKGINQVGLKQYTQVVHKLDDMLEDIQSGQANREENSEFHGILTHLEQLIKRSEAQLRVYFISILNSIKPFDPQINITKKMPFPYYEDQQLGALSWILDYFHGNSEGSIIQDILVGERSKLILKCMAFLEPFAKEISTAKNAPYEKGSSGMNSYTEALLGFIANEKSLVDDLYSQYTESKPHVLSQILSPLISAYAKLFGANLKIVRSNLENFGFFSFELVESINDVKKSLRGKELQNYNLLQDCTQEVRQVTQSLFRDAIDRIIKKANSISTIPSNNGVTEATVDTMSRLRKFSEYKNGCLGAMDNITRENWLPSNYKEKEYTLQNEALNWEDHNVLLSCFISDCIDTLAVNLERKAQIALMPNQEPDVANPNSSKNKHKQRIGFFILMNLTLVEQIVEKSELNLMLAGEGHSRLERLKKRYISYMVSDWRDLTANLMDSVFIDSSGKKSKDKEQIKEKFRKFNEGFEDLVSKTKQYKLSDPSLKVTLKSEIISLVMPMYERFYSRYKDSFKNPRKHIKYTPDELTTVLNQLVR", "values": [
      {"measurement": "soluble on expression in E. coli", "result": "soluble"}
    ]}
  ]
}
